Some of the results follow.
molecular target: T1, MBP-FoxP1dN (Mus musculus, UniProt P58462 326-579); test: PD-seq (MBP pull-down with sequencing); 20 mM Tris-HCl pH 7.5, 100 mM NaCl, 1.5 mM MgCl2, 0.4 uM protein, 0.1 uM dsDNA library, 30 min, room temperature, amylose pull-down; high values mean tight binding; settings: protein: recombinant; tags: His6-MBP; chain copies: 2; dsDNA, one strand shown
T1 sequence: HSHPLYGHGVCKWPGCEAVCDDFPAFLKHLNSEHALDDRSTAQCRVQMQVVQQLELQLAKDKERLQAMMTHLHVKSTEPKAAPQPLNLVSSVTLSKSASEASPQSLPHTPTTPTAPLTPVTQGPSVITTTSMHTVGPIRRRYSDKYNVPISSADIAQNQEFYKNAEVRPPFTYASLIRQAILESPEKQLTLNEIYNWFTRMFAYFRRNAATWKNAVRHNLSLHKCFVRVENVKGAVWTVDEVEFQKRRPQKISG
Outline: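 Amylose resin was used to capture complexes formed during 30 min at room temperature in Tris pH 7.5 buffer with NaCl and MgCl2 between 0.4 µM His6-MBP-tagged mouse FoxP3 or FoxP1 fragment lacking the N-terminus, expressed in E. coli, and 0.1 µM Klenow-filled double-stranded degenerate DNA library. After three washes, the DNA was released with proteinase K, barcoded by PCR and sequenced on Illumina. Binding is pooled-replicate reads-per-million enrichment, pull-down over input.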

Row | Sequence | binding signal
1 | GATGATTGTTCTCCCAGCTGATGAATTAAATTGGTCGAGTAAACAAATTTTCCTAATCTTTCTGTTCAAGCGCCATCTAC | 0.81 RPM ratio (pull-down/input)
2 | GATGATTGTTCTCCCAGCTGATGAATTGCTACAGTCGAGTAAACAAATTTTCCTAATCTTTCTGTTCAAGCGCCATCTAC | 1.11 RPM ratio (pull-down/input)
3 | GATGATTGTTCTCCCAGCTGATGAATTACCAGTTTCGAGTAAACAAATTTTCCTAATCTTTCTGTTCAAGCGCCATCTAC | 0.973 RPM ratio (pull-down/input)
4 | GATGATTGTTCTCCCAGCTGATGAATTAACTACTTCGAGTAAACAAATTTTCCTAATCTTTCTGTTCAAGCGCCATCTAC | 0.969 RPM ratio (pull-down/input)
5 | GATGATTGTTCTCCCAGCTGATGAATTCAAGACTTCGAGTAAACAAATTTTCCTAATCTTTCTGTTCAAGCGCCATCTAC | 0.797 RPM ratio (pull-down/input)
6 | GATGATTGTTCTCCCAGCTGATGAATTTTCGCAATCGAGTAAACAAATTTTCCTAATCTTTCTGTTCAAGCGCCATCTAC | 1.35 RPM ratio (pull-down/input)
7 | GATGATTGTTCTCCCAGCTGATGAATTCCCGGTTTCGAGTAAACAAATTTTCCTAATCTTTCTGTTCAAGCGCCATCTAC | 0.755 RPM ratio (pull-down/input)
8 | GATGATTGTTCTCCCAGCTGATGAATTGAGGAGTTCGAGTAAACAAATTTTCCTAATCTTTCTGTTCAAGCGCCATCTAC | 0.802 RPM ratio (pull-down/input)
9 | GATGATTGTTCTCCCAGCTGATGAATTCCTCCGCTCGAGTAAACAAATTTTCCTAATCTTTCTGTTCAAGCGCCATCTAC | 0.803 RPM ratio (pull-down/input)
10 | GATGATTGTTCTCCCAGCTGATGAATTTTGCCATTCGAGTAAACAAATTTTCCTAATCTTTCTGTTCAAGCGCCATCTAC | 1.02 RPM ratio (pull-down/input)
11 | GATGATTGTTCTCCCAGCTGATGAATTTGAGTGGTCGAGTAAACAAATTTTCCTAATCTTTCTGTTCAAGCGCCATCTAC | 0.788 RPM ratio (pull-down/input)
12 | GATGATTGTTCTCCCAGCTGATGAATTGGCGAACTCGAGTAAACAAATTTTCCTAATCTTTCTGTTCAAGCGCCATCTAC | 0.801 RPM ratio (pull-down/input)
13 | GATGATTGTTCTCCCAGCTGATGAATTAATGAGTTCGAGTAAACAAATTTTCCTAATCTTTCTGTTCAAGCGCCATCTAC | 0.864 RPM ratio (pull-down/input)
14 | GATGATTGTTCTCCCAGCTGATGAATTTCAGCTTTCGAGTAAACAAATTTTCCTAATCTTTCTGTTCAAGCGCCATCTAC | 0.925 RPM ratio (pull-down/input)
15 | GATGATTGTTCTCCCAGCTGATGAATTTAGTAATTCGAGTAAACAAATTTTCCTAATCTTTCTGTTCAAGCGCCATCTAC | 1.17 RPM ratio (pull-down/input)
16 | GATGATTGTTCTCCCAGCTGATGAATTCGATGTTTCGAGTAAACAAATTTTCCTAATCTTTCTGTTCAAGCGCCATCTAC | 1.06 RPM ratio (pull-down/input)

Row | Sequence | binding signal
17 | GATGATTGTTCTCCCAGCTGATGAATTAGGTCGCTCGAGTAAACAAATTTTCCTAATCTTTCTGTTCAAGCGCCATCTAC | 0.826 RPM ratio (pull-down/input)
18 | GATGATTGTTCTCCCAGCTGATGAATTGGCACTCTCGAGTAAACAAATTTTCCTAATCTTTCTGTTCAAGCGCCATCTAC | 0.883 RPM ratio (pull-down/input)
19 | GATGATTGTTCTCCCAGCTGATGAATTCGAAGGCTCGAGTAAACAAATTTTCCTAATCTTTCTGTTCAAGCGCCATCTAC | 0.894 RPM ratio (pull-down/input)
20 | GATGATTGTTCTCCCAGCTGATGAATTTACAGGTTCGAGTAAACAAATTTTCCTAATCTTTCTGTTCAAGCGCCATCTAC | 1.19 RPM ratio (pull-down/input)
21 | GATGATTGTTCTCCCAGCTGATGAATTTGAAAACTCGAGTAAACAAATTTTCCTAATCTTTCTGTTCAAGCGCCATCTAC | 0.813 RPM ratio (pull-down/input)
22 | GATGATTGTTCTCCCAGCTGATGAATTGTGTAAATCGAGTAAACAAATTTTCCTAATCTTTCTGTTCAAGCGCCATCTAC | 1.59 RPM ratio (pull-down/input)
23 | GATGATTGTTCTCCCAGCTGATGAATTAGTCGTCTCGAGTAAACAAATTTTCCTAATCTTTCTGTTCAAGCGCCATCTAC | 0.85 RPM ratio (pull-down/input)
24 | GATGATTGTTCTCCCAGCTGATGAATTCGATCCTTCGAGTAAACAAATTTTCCTAATCTTTCTGTTCAAGCGCCATCTAC | 0.833 RPM ratio (pull-down/input)
25 | GATGATTGTTCTCCCAGCTGATGAATTAAGTATATCGAGTAAACAAATTTTCCTAATCTTTCTGTTCAAGCGCCATCTAC | 1.11 RPM ratio (pull-down/input)
26 | GATGATTGTTCTCCCAGCTGATGAATTATACGCGTCGAGTAAACAAATTTTCCTAATCTTTCTGTTCAAGCGCCATCTAC | 1.03 RPM ratio (pull-down/input)
27 | GATGATTGTTCTCCCAGCTGATGAATTGTAATTATCGAGTAAACAAATTTTCCTAATCTTTCTGTTCAAGCGCCATCTAC | 1.54 RPM ratio (pull-down/input)
28 | GATGATTGTTCTCCCAGCTGATGAATTTTAGGCGTCGAGTAAACAAATTTTCCTAATCTTTCTGTTCAAGCGCCATCTAC | 0.918 RPM ratio (pull-down/input)
29 | GATGATTGTTCTCCCAGCTGATGAATTGGATTCGTCGAGTAAACAAATTTTCCTAATCTTTCTGTTCAAGCGCCATCTAC | 0.892 RPM ratio (pull-down/input)
30 | GATGATTGTTCTCCCAGCTGATGAATTGCAAGACTCGAGTAAACAAATTTTCCTAATCTTTCTGTTCAAGCGCCATCTAC | 0.996 RPM ratio (pull-down/input)
31 | GATGATTGTTCTCCCAGCTGATGAATTCGCCCCGTCGAGTAAACAAATTTTCCTAATCTTTCTGTTCAAGCGCCATCTAC | 0.769 RPM ratio (pull-down/input)

Reference: article PMC12820563, “FoxP3 forms a head-to-head dimer in vivo and stabilizes its multimerization on adjacent microsatellites”
